Measurements taken from the RNAGym collection of RNA variant scans (doi:10.7554/elife.90254).
Read counts are not given, so values of variants with three or more changes are uncertain.

B1: LINE1-full (parent)
chain: UACGUAGGUGGUUUUCCCCUGAUAGUGCUAAGGGGGCCUGGAAGUUUGGACUGGGCAGAGCUCAACACAGCGUGGCAAAGUGGCUGUGGCUAGACUGCCUCUCUGGAUUCCUCGUCACUCAGCAGGGCAUCUCUGAGAGAAAUGCC

Variants of: B1
Experiment: self-cleavage, relative activity (ratio to wild type); higher = more cleavage; in vitro, sequencing; the parent is a self-cleaving ribozyme

| Variant | self-cleavage |
| --- | --- |
| U15C U52A U73A G88A U96C U112C U132A | 0 |
| U15C U62C A64G U87G A124U | 0 |
| U14G G53U A67U A78G | 0.17 |
| U14G A50U U108C | 1.44 |
| U15C G40A U47A U130C | 1.51 |
| U15A A24G U109C G135A | 1.08 |
| U15A C17U A78U U132C | 1.57 |
| U15A U45C A67U A69G | 0.17 |
| U15C A43G U47C A136G A140G | 0 |
| U15A A43G U52C A77U G97A A117G A138G | 0 |
| U15C A31U A138U | 0.95 |
| U15C A78G C113U | 1.62 |
| U15C G54A U62A | 0 |
| U15C U26A U112C U130C | 1.31 |
| U15C U73G U100C | 1.23 |
| U15C A64U A77U U100A C123U | 0.22 |
| U15C U20C A121U | 1.79 |
| U15C C28A U87A A140G | 0.14 |
| U14C U85C A140C | 0.35 |
| U15A A43U U73C | 1.12 |
| U14C U81A A94U | 0.28 |

| Variant | self-cleavage |
| --- | --- |
| U15A A65G U96C | 0.4 |
| U15C U73A U119C U132C U134A A142G | 0.42 |
| U15C U26C G34U A64G C66U A141G | 0.04 |
| U15C A22G C116U U119A | 0.82 |
| U15C A31U U62A C98G C110U A121G U130C | 0.04 |
| U14C U85A U87A | 0.13 |
| U14C U62C U73C U85A | 0.05 |
| U14C U62C G83A U130A | 0.03 |
| U15A U85G C111A | 0.09 |
| U15A U20A G35A A42U U45G U96C A121G | 0 |
| U15C G60A A124U A129U A140G | 0.04 |
| U15A A117G U119C | 1.53 |
| U15A U47A A50G A67G U100C A141U | 0 |
| U15C A24G A136G | 0.84 |
| U14C U52C A59U | 0.59 |
| U15A A30U A129C A140G | 0.87 |
| U15C U20A A78G A79G | 0.91 |
| U15A U39C A64U U87C | 0 |
| U15A U29C A57G | 0 |
| U15A U85C U104C | 0.6 |
| U15C A22G G72A A142G | 0.99 |

| Variant | self-cleavage |
| --- | --- |
| U15A A42G G48A U115C | 1.26 |
| U15C G35A A129U | 1.57 |
| U15C U62C U134C | 0.15 |
| U15C C17G A92U | 1.15 |
| U14G A22U A43G A57U C120U | 0.1 |
| U14C U73C A78G U132C | 1.15 |
| U14C U87C A142G | 0.3 |
| U15C U47C G74U | 1.15 |
| U15C U47G U52A | 1.34 |
| U14C U81C U96A | 0.17 |
| U15C U20G U132C | 1.31 |
| U14C U108C U143C | 1.19 |
| U15C U20C U62C | 0 |
| U14C U52G C99U U115C | 1.84 |
| U15C U62A A117G A121G | 0 |
| U15A U87A A129G | 0.06 |
| U15C U26A U62C U73A | 0.06 |
| U15A A67G A77G | 0 |
| U15A U115A C145U | 1.01 |
| U15C A77U A129U | 1.2 |
| U15C A43G A65G C84U U102C A140G | 0 |

| Variant | self-cleavage |
| --- | --- |
| U14G A79G A107G | 1.39 |
| U14C U45G U85C G135A | 0.16 |
| U15A U46C C56A A65G U115C | 0.06 |
| U15C A117G A140U G144A | 1.25 |
| U15C G88A C120A | 0.01 |
| U15C U62C U115A C120U | 0.13 |
| U14G A22G U52A | 0.97 |
| U15C U29A A94G | 0 |
| U15A U39G G54U C110U U132A A142G | 0.6 |
| U15C U47A U115C G144A | 1.59 |
| U15C A65G U108C | 0.14 |
| U15C U20C G40A U87C U104C U112G | 0 |
| U15A G60U U102C | 0.04 |
| U14C U87C G139U | 0.11 |
| U15A U39C G82A | 0.91 |
| U15A G93U A136G | 0.03 |
| U15C U45G C98G U119C | 0.31 |
| U15C G58U A121G | 0.06 |
| U14C U96C U143C | 0.24 |
| U15A A50G A142G | 0.89 |
